In the supplement of paper PMC5998384:

Columns and labels:
[1] = tested on: HeLa Kyoto; assay: melting temperature (median over replicates), in situ; higher = more thermally stable
[2] = tested on: HeLa Kyoto; assay: solubility change mitosis vs G1/S (difference of NP-40 vs SDS log2 ratios) (log2 ratio difference); higher = more soluble in mitosis
[3] = tested on: HeLa Kyoto; assay: solubility in G1/S (NP-40 vs SDS abundance) (log2 ratio); higher = more soluble; conditions: cell cycle stage: G1/S
[4] = tested on: HeLa Kyoto; assay: thermal stability score vs G1/S (z-score of summed log2 fold changes over temperatures); higher = more thermally stable than in G1/S
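For melting temperature (median over replicates), in situ in this document: HeLa Kyoto cells synchronized by double thymidine or nocodazole block, proteins quantified by TMT10plex mass spectrometry, three independent biological replicates.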
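For solubility change mitosis vs G1/S (difference of NP-40 vs SDS log2 ratios) in this document: synchronized HeLa Kyoto cells (double thymidine block for G1/S, nocodazole release for mitosis), protein amounts in NP-40 versus SDS lysates quantified by mass spectrometry, three biological replicates.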
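For solubility in G1/S (NP-40 vs SDS abundance) in this document: HeLa Kyoto cells arrested at G1/S by double thymidine block, proteins quantified by TMT10plex mass spectrometry in mild NP-40 versus SDS extracts, three biological replicates.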
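For thermal stability score vs G1/S (z-score of summed log2 fold changes over temperatures) in this document: synchronized HeLa Kyoto cells, proteins quantified by TMT10plex mass spectrometry, three biological replicates, mitosis taken 0.5 h after nocodazole release, G1/S directly after double thymidine block.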

## MAAVGRVGSFGSSPPGLSSTYTGGPLGNEIASGNGGAAAGDDEDGQNLWSCILSEVSTRSRSKLPAGKNVLLLGEDGAGKTSLIRKIQGIEEYKKGRGLEYLYLNVHDEDRDDQTRCNVWILDGDLYHKGLLKFSLDAVSLKDTLVMLVVDMSKPWTALDSLQKWASVVREHVDKLKIPPEEMKQMEQKLIRDFQEYVEPGEDFPASPQRRNTASQEDKDDSVVLPLGADTLTHNLGIPVLVVCTKCDAISVLEKEHDYRDEHFDFIQSHIRKFCLQYGAALIYTSVKENKNIDLVYKYIVQKLYGFPYKIPAVVVEKDAVFIPAGWDNDKKIGILHENFQTLKAEDNFEDIITKPPVRKFVHEKEIMAEDDQVFLMKLQSLLAKQPPTAAGRPVDASPRVPGGSPRTPNRSVSSNVASVSPIPAGSKKIDPNMKAGATSEGVLANFFNSLLSKKTGSPGGPGVSGGSPAGGAGGGSSGLPPSTKKSGQKPVLDVHAELDRITRKPVTVSPTTPTSPTEGEAS [DYNC1LI1]
[1]; cell cycle stage: G1/S
  melting temperature: 51.8 °C
[1]; cell cycle stage: mitosis
  melting temperature: 52.3 °C
[2]
  solubility change mitosis (log2): -0.0139
[3]
  solubility in G1/S (log2): 0.409
[4]; cell cycle stage: early G1 (4.5 h after nocodazole release)
  thermal stability score: 1.08
[4]; cell cycle stage: mitosis
  thermal stability score: 1.52
